In all, about 400,000 compounds went through this assay and about 2,200 (0.55%) were called active. This list was built around the results that the source calls inconclusive (neither active nor inactive); the mix of calls is not that of the screen. The call rests on the fitted dose curve; in most records, active means well fitted inhibition curve with a large enough effect; inconclusive means small, poorly fitted or top-dose-only effect, or another doubt; inactive means no such curve, though single readings can be large or run the other way. Potencies beside an inconclusive call are fits to weak or partial responses and may not hold up.
biological target: DNA polymerase kappa (Homo sapiens) (UniProt Q9UBT6); assay: qHTS for Inhibitors of Polymerase Kappa; details: purified Pol kappa, fluorescent DNA synthesis assay, 10 min; series mostly up to 107 µM; activity, negative = inhibition: at the top concentration
Summary of the method: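 10 nM Pol kappa was preincubated with compounds for 15 min at room temperature. Reaction started with 50 nM (final) substrate. Fluorescence read kinetically at 0 and 10 min.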
On the % scale 0 is the no-effect control and ±100 the full control effect; potency means the concentration at half of the fitted maximal effect; tags describe the fitted curve by direction and shape.

Chain of UniProt Q9UBT6 (Q9UBT6 whole entry, looked up): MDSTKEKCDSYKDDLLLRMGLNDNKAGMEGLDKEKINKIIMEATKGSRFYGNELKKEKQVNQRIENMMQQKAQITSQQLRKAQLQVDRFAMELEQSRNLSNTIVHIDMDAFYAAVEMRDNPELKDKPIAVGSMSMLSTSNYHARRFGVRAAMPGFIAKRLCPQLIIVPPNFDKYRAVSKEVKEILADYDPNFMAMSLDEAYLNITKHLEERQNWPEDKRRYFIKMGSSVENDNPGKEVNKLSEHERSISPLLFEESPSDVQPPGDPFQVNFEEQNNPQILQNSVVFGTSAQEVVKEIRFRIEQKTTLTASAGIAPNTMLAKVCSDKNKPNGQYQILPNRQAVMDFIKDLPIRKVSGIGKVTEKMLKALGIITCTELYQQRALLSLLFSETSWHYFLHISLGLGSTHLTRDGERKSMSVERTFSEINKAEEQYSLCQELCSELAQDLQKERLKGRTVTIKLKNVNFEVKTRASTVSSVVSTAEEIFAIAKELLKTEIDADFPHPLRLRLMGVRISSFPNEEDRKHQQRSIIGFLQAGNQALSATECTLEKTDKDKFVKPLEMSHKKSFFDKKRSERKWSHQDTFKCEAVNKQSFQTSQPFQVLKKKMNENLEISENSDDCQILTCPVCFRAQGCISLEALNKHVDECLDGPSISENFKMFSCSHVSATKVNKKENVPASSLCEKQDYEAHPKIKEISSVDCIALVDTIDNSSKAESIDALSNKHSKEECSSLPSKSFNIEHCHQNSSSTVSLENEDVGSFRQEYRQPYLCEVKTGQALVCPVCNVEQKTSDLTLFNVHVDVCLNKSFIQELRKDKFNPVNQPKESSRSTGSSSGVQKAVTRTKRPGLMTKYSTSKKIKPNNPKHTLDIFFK

Potency, inactive:
Cc1cccc(C(=O)Nc2nnc(S(=O)(=O)N3CCC(C)CC3)s2)c1

Potency, inconclusive:
COc1cccc2c1C(=O)c1c(O)c3c(c(O)c1C2=O)CC(O)(C(=O)CO)CC3OC1CC(N(C)C)C(O)C(C)O1 (stereo not given) 10 µM [inhibitor, partial curve, poor fit], O=C(O)C1CCCCC1C(=O)Nc1nc(-c2ccc(Cl)s2)cs1 (stereo not given) 100 µM [inhibitor, single point], CC(=O)c1cccc(S(=O)(=O)NCCCN2CCOCC2)c1 89.1 µM [inhibitor, single point], CCCCC/C=C\C/C=C\C/C=C\C/C=C\CCCC(=O)C(F)(F)F 28.2 µM [inhibitor, partial curve], CN(C(=O)/C=C/c1ccco1)c1ccccc1C(=O)O 89.1 µM [inhibitor, single point], Cc1ccc(C(=O)Oc2coc(CSc3nnc(NC(=O)c4cccs4)s3)cc2=O)cc1 50.1 µM [inhibitor, partial curve], COc1ccc(-c2coc3cc(O)ccc3c2=O)cc1O 79.4 µM [inhibitor, single point], COc1cc(-c2noc(C)c2C#Cc2ccsc2)cc(OC)c1OC 89.1 µM [inhibitor, partial curve, poor fit], Cc1ccc(C(=O)NC(=S)NCC2CCCO2)cc1Br (stereo not given) 79.4 µM [inhibitor, partial curve], C/C(=C\C=C(C#N)C#N)c1cc(C#N)c(N)o1 28.2 µM [inhibitor, single point], NCc1nc2cccnc2n1Cc1ccccc1Cl 89.1 µM [inhibitor, partial curve, poor fit], Cc1cccc(CNc2ccnc(-c3ccccc3CN(C)C)n2)c1 11.2 µM [inhibitor, partial curve, poor fit], O=C(NCc1ccc(F)cc1)c1ccc2c(c1)N(Cc1ccc(F)cc1Cl)C(=O)CS2 79.4 µM [inhibitor, single point], COc1ccccc1CNC(=O)COC(=O)c1ccccc1-c1ccccc1 63.1 µM [inhibitor, partial curve, poor fit], Cc1c(C(=O)O)cccc1-c1ccc(/C=C2\SC(=O)NC2=O)o1 63.1 µM [inhibitor, partial curve, poor fit], O=C(N/N=C/c1ccc(Cl)cc1)c1sccc1OCc1ccc(F)cc1 22.4 µM [inhibitor, single point], Oc1ccc(/C=N/N2CCOCC2)c(O)c1O 79.4 µM [inhibitor, partial curve, poor fit], CN(C)CCCN1c2ccccc2Sc2ccc(Cl)cc21 37.7 µM [inhibitor, partial curve, poor fit], COC(=O)CCC/C=C1/SCC(NC(=O)c2ccccc2)C1O (stereo not given) 89.1 µM [inhibitor, single point], NC(=O)[C@@H]1CCNc2c(I)cc([N+](=O)[O-])cc2C(=O)N[C@@H](CCC(=O)O)C(=O)N[C@@H](CO)C(=O)N1 63.1 µM [inhibitor, partial curve, poor fit], O=C1c2ccccc2NC(c2ccc(O)c(O)c2)N1c1ccccc1Cl (stereo not given) 89.1 µM [inhibitor, single point], O=C1C(=Cc2ccco2)C(=O)c2ccccc21 89.1 µM [inhibitor, single point]

Potency, active:
O=c1c2ccccc2[nH]c2ccc(O)cc12 79.4 µM, O=C(O)c1cccc2cccc(-c3c4ccc(=O)c(O)c-4oc4c(O)c(O)ccc34)c12 1.12 µM, CCN1/C(=C/C=C/C=C/c2sc3ccccc3[n+]2CC)Sc2ccccc21 31.6 µM, CC(=O)OCC1=C(C(=O)O)N2C(=O)C(NC(=O)Cn3nc(C(F)F)c(Cl)c3C)C2SC1 (stereo not given) 50.1 µM, CC(=O)Nc1ccc(S(=O)(=O)NC2(C(F)(F)F)C(=O)NC(C)=C2C#N)cc1 (stereo not given) 79.4 µM, CC(=O)c1ccc2c(c1)C1C=CCC1C(C(=O)O)N2 (stereo not given) 3.55 µM

activity, negative = inhibition, inactive:
C/C(=N\O)c1ccc2c(c1)CC(C)O2 (stereo not given) 7.67%, COc1ccc(C2C3=C(Nc4ncnn42)c2ccccc2CCC3)cc1 (stereo not given) -5.14%, O=C(NCc1cc([N+](=O)[O-])ccc1O)c1cccnc1Sc1ccccc1Cl -3.88%, CCCOc1ccc(N2CC(C(=O)Nc3cccc(Cl)c3Cl)CC2=O)cc1 (stereo not given) -2.78%, Cc1onc(-c2c(Cl)cccc2Cl)c1C(=O)N[C@H]1C(=O)N2[C@H]1SC(C)(C)[C@H]2C(=O)O -7.55% [at 12 µM], Clc1nssc1=Nc1nncs1 -1.23%, O=C(CN1C=NS(=O)(=O)c2ccccc21)Nc1ccc(F)cc1 -4.41% [at 60.1 µM], COc1ccc(-c2cc(C(=O)OCC(=O)c3ccc(C)cc3)c3cccc(Cl)c3n2)cc1 -7.59%, Cc1ccccc1CS(=O)(=O)CCC(=O)NCCCN1CCN(c2ccccc2F)CC1 -7.15%, O=c1cc(O)c2c(=O)n(C3CCCCC3)c3ccccc3c2o1 -23.3%, CSCC[C@H](NC(=O)Cc1c(C)c2c(cc(C)c3c(C)coc32)oc1=O)C(=O)O -9.28%, CCC(=O)N1CCc2cc(S(=O)(=O)NCCC(=O)NC(C)c3ccccc3)ccc21 (stereo not given) 1.05%, CC(C)C[C@H](NC(=O)[C@H](CCC(N)=O)NC(=O)[C@H](CCCCN)NC(=O)[C@H](CCC(N)=O)NC(=O)[C@@H](N)CCC(=O)O)C(=O)N[C@@H](CCC(N)=O)C(=O)O 8.67% [at 19.4 µM], COC(=O)C1=C(C)N(CCCC(=O)O)C(=O)NC1c1cccs1 (stereo not given) 7.86%, Cc1cccc(NC(=O)CSc2cn(CC(=O)N3CCC(C)CC3)c3ccccc23)c1C 0.411%, CCCOc1ccc(C2C(C(=O)c3cc4ccccc4o3)=C(O)C(=O)N2c2cc(C)on2)cc1 (stereo not given) 10.9%

— PubChem BioAssay AID588579 (National Center for Advancing Translational Sciences (NCATS), 2011)
